Test results published in the CheMixHub ionic liquid set.
The source gives many values for each of these; only a part stands here.

Assay: xn = mol fraction of the nth substance listed
Conditions: 101 kPa; for electrical conductivity: 313 K

CCCCCCCCCCCC[N+](C)(C)C.[Br-] + O
Conditions | viscosity [mPa·s]
298.15 K, x1 = 8.883e-05 | 0.8988
298.15 K, x1 = 0.0001436 | 0.9014
298.15 K, x1 = 0.0002003 | 0.9037
298.15 K, x1 = 0.0002193 | 0.9058
298.15 K, x1 = 0.0002688 | 0.9094
298.15 K, x1 = 0.0003253 | 0.9145
298.15 K, x1 = 0.0003619 | 0.9151
298.15 K, x1 = 0.0005435 | 0.9292
298.15 K, x1 = 0.0009029 | 0.9587
298.15 K, x1 = 0.001804 | 1.04
313.15 K, x1 = 5.406e-05 | 0.611
313.15 K, x1 = 0.0001081 | 0.612
313.15 K, x1 = 0.0001622 | 0.617
313.15 K, x1 = 0.0002162 | 0.615
313.15 K, x1 = 0.0002702 | 0.617
313.15 K, x1 = 0.0003242 | 0.62
313.15 K, x1 = 0.0003783 | 0.624
313.15 K, x1 = 0.0004323 | 0.626
313.15 K, x1 = 0.0004863 | 0.628
313.15 K, x1 = 0.0005403 | 0.629

CCCCCCCCCCCCCCCC[N+](C)(C)C.[Br-] + O + CO
Conditions | electrical conductivity [S/m]
x1 = 9.57e-05, x2 = 0.9199 | 0.08
x1 = 0.0001148, x2 = 0.9199 | 0.087
x1 = 0.000134, x2 = 0.9199 | 0.093
x1 = 0.0001531, x2 = 0.9199 | 0.0991
x1 = 0.0001722, x2 = 0.9198 | 0.105
x1 = 0.0001914, x2 = 0.9198 | 0.111
x1 = 0.0002105, x2 = 0.9198 | 0.117
x1 = 0.0002296, x2 = 0.9198 | 0.122
x1 = 0.0002488, x2 = 0.9198 | 0.128
x1 = 0.0002679, x2 = 0.9198 | 0.134
